Results from PubChem BioAssay AID463173 (ICCB-Longwood Screening Facility, Harvard Medical School, 2010).
The campaign covered roughly 52,000 compounds. About 4,300 (8.3%) were called active. Rule as the data show it: active = survival mostly below about 52% (no sharp cut-off); inactive = mostly above about 56%. The list shows a part of the results.

What follows are compounds tested on DeltatarO mutant (assay: growth inhibition of S. aureus wild type versus tarO mutant, primary screen, teichoic acid synthesis inhibitors, RN4220, OD600 (AID 463173)). Conditions: OD600, 18 h, active compounds read low, screened at 18.75 µg/mL (by protocol).
In the case of CCN1CCN(CCCNC(=O)c2cnn(-c3ccc(OC)cc3)c2C2CCN(C(=O)OC(C)(C)C)CC2)CC1, the survival is reported as inactive: 95%.
With CCN1CCOC(=O)C1CC(=O)Nc1cc(Cl)ccc1C (stereo not given) the survival was inactive: 52%.
In the case of COC(=O)c1ccc(C(=O)OC)c(NC(=O)c2cnn3c(C(F)F)cc(-c4ccc(C)cc4)nc23)c1, the survival is reported as inactive: 60%.
CCOC(=O)c1cccc(NC(=O)CC2C(=O)N(c3ccc(F)cc3)C(=O)N2Cc2cccc(OC)c2)c1 (stereo not given) was tested, and the survival was inactive: 93%.
With Cc1ccc(NC(=O)CN2C(=O)c3ccccc3Sc3ccc(C(=O)N4CCCC4)cc32)cc1 the survival was inactive: 76%.
For O=C(Nc1cc(Cl)ccc1Cl)c1cc(S(=O)(=O)N2CCCc3ccccc32)ccc1F, the survival was inactive: 94%.
In the case of CCN(CC)CCNC(=O)c1[nH]c2ccccc2c1Sc1ccc(Cl)cc1, the survival is reported as inactive: 45%.
For CN(C(=O)c1ccc2c(c1)N(Cc1ccccc1F)C(=O)c1ccccc1S2(=O)=O)C1CCCCC1, the survival was inactive: 105%.
In the case of COc1ccc(NC(=O)C(NC(=O)/C=C\c2ccc3c(c2)OCO3)c2ccc(OC)cc2)cc1 (stereo not given), the survival is reported as inactive: 61%.
COc1ccc(NC(=O)C(=O)NCC(c2cccnc2)N2CCc3ccccc3C2)cc1 (stereo not given) was tested, and the survival was inactive: 69%.
In the case of CCOC(=O)C1CCCN(Cc2cn3c(-c4ccc(Br)cc4)nnc3s2)C1 (stereo not given), the survival is reported as inactive: 69%.
In the case of CCOc1ccc(NC(=O)Cc2ccc(-n3c(C)nc4cccnc43)cc2)cc1, the survival is reported as inactive: 100%.
With COc1ccc(C(=O)NNc2ncnc3c2cnn3-c2ccccc2)cc1 the survival was inactive: 92%.
For CC(=O)N1CCC(N(Cc2ccco2)C(=O)Nc2ccc(Br)cc2F)CC1, the survival was inactive: 124%.
With CCOc1ccc(NC(=O)[C@H](Cc2ccccc2)N2Cc3ccccc3C2=O)cc1 the survival was inactive: 73%.
In the case of CCN(CC)c1cc2c(cc1F)c(=O)c(S(=O)(=O)c1ccc(C)cc1)cn2Cc1ccc(F)cc1, the survival is reported as inactive: 94%.
With CCCSc1nc2c(c(=O)[nH]1)C(c1ccc(F)cc1F)CC(=O)N2 (stereo not given) the survival was inactive: 43%.
O=C(Cn1ncc2ccsc2c1=O)N1CCN(c2ccccc2)CC1 was tested, and the survival was inactive: 88%.
CCCN1CCN(c2ncnc3sc(C(=O)Nc4cccc(Cl)c4C)c(C)c23)CC1 was tested, and the survival was inactive: 95%.
For O=C(NCCc1ccc(Cl)cc1)c1nc(-c2cccc(F)c2)n2c1CCCCC2, the survival was inactive: 125%.
With COc1ccc(CCN2CC(O)=C(c3nc4ccccc4c(=O)[nH]3)C2=N)cc1OC the survival was inactive: 74%.
With Cc1cc2n(n1)CCC(=O)N2Cc1ccc(C(=O)Nc2ccc(Br)c(C)c2)cc1 the survival was inactive: 76%.
With COC(=O)c1c(NC(=O)COc2c(C)ccc(C)c2C)sc2c1CCC(C)C2 (stereo not given) the survival was active: 22%.
For CC1=C(C(=O)Nc2cccnc2)C(c2ccc(Cl)cc2)n2nc(SCc3ccccc3)nc2N1 (stereo not given), the survival was inactive: 64%.
In the case of Cc1ccc(-n2nc(C(=O)Nc3cccc(C#N)c3)c3c4ccccc4n(C)c3c2=O)cc1, the survival is reported as inactive: 129%.
With Cc1ccccc1NC(=O)CSc1nc2ccccc2c2nc(CCn3c(C)nc4ccccc43)nn12 the survival was inactive: 91%.
In the case of Cc1ccc(CNC(=O)c2cn(C)c3ccc(S(=O)(=O)N4CCOCC4)cc3c2=O)cc1, the survival is reported as inactive: 127%.
With COc1ccccc1N1CCN(C(=O)c2cc3c(=O)oc4ccc(C)cc4c3s2)CC1 the survival was inactive: 106%.
With COc1ccc(OC)c(S(=O)(=O)Nc2cccc(-c3ccc(N4CCCCCC4)nn3)c2)c1 the survival was inactive: 70%.
With CCOc1ccc(-c2nc(CNC(=O)Nc3ccccc3)c(C)o2)cc1 the survival was inactive: 80%.
In the case of N#CCCCn1c(O)c(N=NC(=O)C2COc3ccccc3O2)c2ccccc21 (stereo not given), the survival is reported as inactive: 62%.
In the case of COc1ccc(NCc2cc3ccc(OC)cc3n(CC(=O)Nc3cccc(OC)c3)c2=O)cc1, the survival is reported as inactive: 94%.
CCOC(=O)c1c(C)c(C(=O)NCc2ccc(Cl)cc2)c(C)n1CC was tested, and the survival was inactive: 104%.
CCC1CCc2nc3sc(C(=O)Nc4ccc(F)c(F)c4)c(N)c3cc2C1 (stereo not given) was tested, and the survival was inactive: 76%.
With COc1ccc(NC(=O)CSc2nc3c(c(=O)[nH]2)CCC3)cc1 the survival was inactive: 55%.
With Cn1c(-c2ccc(S(=O)(=O)N3CCCC3)cc2)csc1=Nc1ccc(Cl)c(Cl)c1 the survival was inactive: 78%.
With CC(C)c1ccccc1Oc1c(C(F)(F)F)oc2c(CN3CCN(C)CC3)c(O)ccc2c1=O the survival was inactive: 49%.
In the case of Brc1ccc(CN2CCc3nc(N4CCN(c5ncccn5)CC4)ncc3C2)cc1, the survival is reported as inactive: 65%.
With O=C(Cn1c(=O)n(CCc2ccccc2)c(=O)c2c3c(sc21)CCCC3)Nc1ccc(F)c(F)c1 the survival was inactive: 84%.
For CCCc1nnc(NC(=O)Cc2coc3ccc(C)cc23)s1, the survival was inactive: 72%.
With CCOc1ccccc1Nc1sc(C(=O)c2ccc(Cl)cc2)c(N)c1C(=O)NCCc1ccccc1 the survival was inactive: 94%.
In the case of Cc1ccccc1NC(=O)c1c(NC(=O)C(F)(F)F)sc2c1CCCCC2, the survival is reported as active: -3%.
Cn1nnc2cc(C(=O)Nc3cccnc3)ccc21 was tested, and the survival was inactive: 81%.
CC1Cc2ccccc2N1C(=O)CSc1nccc(=O)[nH]1 (stereo not given) was tested, and the survival was inactive: 81%.
With COc1cc(NC(=O)c2nn(-c3ccc(F)cc3)c(=O)n(C)c2=O)cc(OC)c1OC the survival was inactive: 125%.
For CCn1c(C(=O)N2CCC(C(=O)NCCCOC)CC2)cc2sccc21, the survival was inactive: 82%.
For O=C(COCc1cc(-c2cccs2)on1)NCc1cccc(Cl)c1, the survival was inactive: 117%.
With Cc1cc(C)c(/C=C/c2onc(C)c2S(=O)(=O)N2CCC(C(=O)Nc3ccc(Cl)cc3C)CC2)c(C)c1 the survival was inactive: 94%.
In the case of Cc1nc2ccn(Cc3ccccc3)c(=O)c2cc1C(=O)NCc1ccccc1F, the survival is reported as inactive: 80%.
With COc1ccc(NC(=O)Nc2cccc(-c3cn4cccnc4n3)c2)cc1 the survival was inactive: 86%.
For CC1CCCN(C(=O)CSc2nnc(COc3ccc(Cl)cc3)n2C)C1 (stereo not given), the survival was inactive: 99%.
CC1(C)Oc2ccc(C(=O)N3CCCC3)cc2N(CC(=O)N2CCCCC2)C1=O was tested, and the survival was inactive: 81%.
CC1CC(=O)N(CC(=O)Nc2ccc(F)cc2F)c2ccccc2S1 (stereo not given) was tested, and the survival was inactive: 95%.
O=C(CCCn1ccc2cc(S(=O)(=O)N3CCCC3)ccc21)NCc1ccc(Cl)cc1 was tested, and the survival was inactive: 96%.
Cn1c(=O)[nH]c(=O)c2c1nc(NCCO)n2CC(O)COc1ccccc1 (stereo not given) was tested, and the survival was inactive: 165%.
